Results: PMC4336329 (PLoS ONE, 2015)
Among all 310,000 compounds or so, about 14,000 (4.5%) showed an effect of 50% or more. The effect is printed as a negative number. The list shows a part of the results.

Target: human ether-à-go-go-related gene (hERG) potassium channel (human, UniProt Q12809)
Experiment: primary screen, population patch clamp on CHO cells stably expressing hERG
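Further: peak tail current of the secondary pulse compared with the same well before compound.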

Sequence of human ether-à-go-go-related gene (hERG) potassium channel (Q12809 whole entry, looked up): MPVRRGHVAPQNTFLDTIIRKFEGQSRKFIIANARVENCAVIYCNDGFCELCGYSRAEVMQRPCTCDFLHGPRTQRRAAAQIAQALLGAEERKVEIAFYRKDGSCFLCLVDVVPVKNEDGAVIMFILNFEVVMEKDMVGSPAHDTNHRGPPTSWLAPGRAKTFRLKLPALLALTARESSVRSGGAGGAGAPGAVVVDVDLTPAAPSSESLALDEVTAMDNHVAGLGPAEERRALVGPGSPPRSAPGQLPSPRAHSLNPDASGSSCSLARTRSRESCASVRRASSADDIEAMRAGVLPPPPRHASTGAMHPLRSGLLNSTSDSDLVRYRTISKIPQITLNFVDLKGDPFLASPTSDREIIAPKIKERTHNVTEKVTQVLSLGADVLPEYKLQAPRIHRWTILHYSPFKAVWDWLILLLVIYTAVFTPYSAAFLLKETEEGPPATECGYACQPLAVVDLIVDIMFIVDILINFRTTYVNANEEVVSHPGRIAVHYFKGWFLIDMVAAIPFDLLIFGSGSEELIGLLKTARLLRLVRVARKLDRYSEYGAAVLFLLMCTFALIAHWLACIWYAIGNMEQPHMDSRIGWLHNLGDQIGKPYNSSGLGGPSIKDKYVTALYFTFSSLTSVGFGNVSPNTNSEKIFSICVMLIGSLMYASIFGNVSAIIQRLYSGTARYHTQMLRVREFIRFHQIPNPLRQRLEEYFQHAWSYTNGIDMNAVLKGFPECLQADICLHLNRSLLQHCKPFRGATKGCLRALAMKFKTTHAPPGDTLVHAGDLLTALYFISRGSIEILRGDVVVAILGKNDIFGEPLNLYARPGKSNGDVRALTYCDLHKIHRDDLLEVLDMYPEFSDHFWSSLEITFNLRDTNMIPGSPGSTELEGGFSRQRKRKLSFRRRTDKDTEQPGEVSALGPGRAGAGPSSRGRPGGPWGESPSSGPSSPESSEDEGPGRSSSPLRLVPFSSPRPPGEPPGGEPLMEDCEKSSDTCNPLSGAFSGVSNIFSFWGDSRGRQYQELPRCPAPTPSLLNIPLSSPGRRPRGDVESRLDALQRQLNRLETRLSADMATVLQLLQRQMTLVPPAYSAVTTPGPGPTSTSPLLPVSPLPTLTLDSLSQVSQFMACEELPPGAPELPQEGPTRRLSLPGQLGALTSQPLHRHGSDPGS

Structure (SMILES) | hERG current change (%, negative = inhibition) at 10uM [%]
O=C(Nc1ccnn1C1CCN(C(=O)c2ccc(Cl)c(F)c2)CC1)C1CCOC1 (stereo not shown) | 5.2
Cc1ccc(NC(=O)c2ccc3[nH]c(=O)c(=O)[nH]c3c2)nc1 | 6.38
O=C(c1ccco1)N1CCN(S(=O)(=O)c2ccc(Cl)cc2)CC1 | 2.47
COc1ccc(NC(=O)c2c(NC(=O)CNCC(C)C)sc3c2CCC3)c(OC)c1 | 22.9
Br.N=C(N)SCc1ccc(Cl)cc1Cl | -32.2
Cn1cnnc1SCC(=O)Nc1ccccc1F | 209
CC1=NN(c2cccc(C(=O)O)c2)C(=O)/C1=C\C=C\c1ccco1 | 8.53
COCCNC(=O)c1ccc(S(=O)(=O)N2CCCc3ccccc32)cc1 | 20.7
COC(=O)CNC(=O)CNC(=O)Nc1ccccc1Cl | 9.2
CC(C)(C)c1ccc(SCCc2cccnc2)cc1 | 8.44
Cc1ccc(NC(=S)NN2CCN(C)CC2)c(C)c1 | 12.6
O=C1N/C(=N/N=C/c2ccc(O)cc2)SC1Cc1ccccc1 (stereo not shown) | -0.793
OCc1c(Cl)nc2ccccn12 | -17.5
CCOC(=O)c1sc(=S)n(C)c1NC(=O)c1ccc(C(C)(C)C)cc1 | 11.8
COc1ccc([N+](=O)[O-])cc1/C=N/NC(=O)CNC(=O)c1cccc(F)c1 | -24.3
CCN1CCCc2cc(CN(CCN3CCOCC3)C(=S)Nc3ccc(C)cc3)ccc21 | -8.41
COCCN1CCN(C(=O)c2cc(COc3ccc(F)cc3Cl)on2)CC1 | -3.91
CCOC(=O)C(C)Sc1nc2c(cnn2-c2ccc(F)cc2)c(=O)[nH]1 (stereo not shown) | 2.97
CC(C)(C)c1cc(OC(=O)C2CCCC2)ccc1O | 16.7
O=C(CN1N=C(C(F)(F)F)CC1(O)c1ccc([N+](=O)[O-])cc1)c1ccccc1 (stereo not shown) | -8.56

Structure (SMILES) | hERG current change (%, negative = inhibition) at 10uM [%]
CC(=O)c1ccc(-c2ccccc2)cc1 | 19.1
Cc1nnc(SCCC(=O)Nc2nc(-c3ccccc3)ns2)s1 | 0.127
Cc1ccc(-n2c(=O)c3sccc3n(Cc3cc(=O)n4cc(Cl)ccc4n3)c2=O)cc1F | -41.3
O=C(COc1ccc(-n2cnnn2)cc1)NC1CCCCC1 | -24.3
COc1ccc(CN(CC2CCC(C(=O)O)CC2)C(=S)Nc2ccccc2C)cc1 (stereo not shown) | 20.9
O=C(O)C(=O)O.O=[N+]([O-])c1ccc(S(=O)(=O)N2CCN(Cc3ccco3)CC2)cc1 | 15.3
C=CCn1c(SCn2nnc3ccccc3c2=O)nnc1C1CCCCC1 | -14.1
Cc1ccc(NC(=O)C(=O)NN)cc1 | 17.3
CCCc1cc(=O)[nH]c(SCc2ccc(C#N)cc2)n1 | -18.5
COc1ccc(-n2c(NN)nc3sc4c(c3c2=O)CCCC4)cc1 | -47.4
CCOC(=O)N1CCN(S(=O)(=O)c2ccc(C(=O)Nc3nc4ccc(F)cc4s3)cc2)CC1 | -25.3
COC(=O)N/N=C\c1cc(Br)ccc1OCc1ccccc1 | -6.55
O=c1[nH]c(S)c(/C=C2\C=Nc3ccccc32)s1 | 20.1
Cn1c(=O)c2[nH]c(N/N=C(/C#N)C(N)=O)nc2n(C)c1=O | -1
Cc1cc(=O)n2[nH]c(C)cc2n1 | 16.3
CN1CCN(c2nc3c(c(=O)[nH]c(=O)n3C)n2CC(N)=O)CC1 | 13.5
Cc1ccc(-c2cc(C(=O)N3CCN(C(=O)c4ccco4)CC3)no2)cc1 | -34
COc1ccc(-c2ccc(NS(=O)(=O)c3cc([N+](=O)[O-])ccc3C)cc2)nn1 | -25.5
Clc1cccc(/C=N/Nc2nnc(Cl)c3ccccc23)c1 | 1.62
CCc1cccc(NS(=O)(=O)c2c(C)nc3sc(CC)nn3c2=O)c1 | -24.6

Structure (SMILES) | hERG current change (%, negative = inhibition) at 10uM [%]
O=C(NCCNc1ccc([N+](=O)[O-])cc1)c1ccc(Cl)cc1 | -52.8
C=CCNC(=O)c1onc(CSc2cc(C)ccc2C)c1C(=O)O | 3.65
Cc1c(C)n(C)c2ccc(C(=O)NCCCN3CCN(C)CC3)cc12 | 14.9
O=C(CC1SC(=O)N(c2ccccc2)C1=O)Nc1cccc2ccccc12 (stereo not shown) | 11.7
O=C(NO)c1cc(OCC(F)(F)F)ccc1OCC(F)(F)F | -0.951
CCOC(=O)C1CCN(C(=O)C(C)Oc2ccc(C(=O)c3ccccc3)cc2)CC1 (stereo not shown) | -41.6
O=C(O)C[C@H]1c2cc(C(F)(F)F)ccc2S(=O)(=O)N1Cc1ccccc1 | 12.8
COc1cc(CN2CCC(C(=O)N3CCN(c4ccccc4F)CC3)CC2)ccc1O.O=C(O)C(=O)O | -19.9
CCOC(=O)C1(c2ccccc2)CCN(CC(=O)Nc2ccc(C)cc2)CC1 | -30.1
Cc1ccc(CN2CCNC(=O)C2CC(=O)N(C)Cc2cnccn2)cc1 (stereo not shown) | 20.4
CCC(CC)C(=O)OCC(=O)NC12CC3CC(CC(C3)C1)C2 | -19.5
CS(=O)(=O)N(CC(=O)NCCSCc1ccccc1Cl)c1ccc(F)cc1 | -23.9
CNc1c([N+](=O)[O-])cnn1-c1ccccn1 | -15.5
CC(C)Oc1ccc(C(=O)NC2=NCCS2)cc1 | 23.4
COc1ccc(/C=C/C(=O)O)cc1S(=O)(=O)NC1CCS(=O)(=O)C1 (stereo not shown) | 21
O=C(Nc1cccc(-n2cnnn2)c1)c1ccc(C(F)(F)F)cc1 | -15.3
O=C(NC1CCN(Cc2ccccc2)CC1)c1cccc(S(=O)(=O)Nc2ccc(F)cc2)c1 | -63.8
Cl.O=C(CCN1CCCCCC1)Nc1cccc(F)c1 | -23.6
